Laboratory results taken from PubChem BioAssay AID504332 (National Center for Advancing Translational Sciences (NCATS), 2011).
Out of some 350,000 compounds screened, about 31,000 (8.9%) were called active. Inconclusive means that the source gave no clear call. Such entries were picked first, then a sample of the others. Calls come from the whole dose curve; as a rule, active = well fitted inhibition curve with a large enough effect; inconclusive = small, poorly fitted or top-dose-only effect; inactive = no such curve, though single readings can be large or run the other way. A potency beside an inconclusive call is a rough fit, not a confirmed value.

Each compound was assayed against Histone-lysine N-methyltransferase EHMT2 (Homo sapiens) (UniProt Q96KQ7) (assay: qHTS Assay for Inhibitors of Histone Lysine Methyltransferase G9a). Conditions: G9a H3K9 monomethylation, AlphaScreen, 2 h; activity, negative = inhibition: at 59 µM (top of the series) unless noted.
Procedure, shortened: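 G9a (20 nM) was preincubated 15 min with compound, then reacted 2 h at room temperature with 500 nM biotin-H3K9 peptide and 20 µM SAM. Monomethyl-H3K9 detected by AlphaScreen using anti-H3K9me1 antibody.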
% is set by controls: 0 for no effect and ±100 for the full control effect; potency is the fitted concentration of half-maximal effect; tags give direction and shape of the fitted curve.
Note: nearly all actives have a fitted effect of over 75% in size.

UniProt Q96KQ7, sequence (Q96KQ7 whole entry, looked up): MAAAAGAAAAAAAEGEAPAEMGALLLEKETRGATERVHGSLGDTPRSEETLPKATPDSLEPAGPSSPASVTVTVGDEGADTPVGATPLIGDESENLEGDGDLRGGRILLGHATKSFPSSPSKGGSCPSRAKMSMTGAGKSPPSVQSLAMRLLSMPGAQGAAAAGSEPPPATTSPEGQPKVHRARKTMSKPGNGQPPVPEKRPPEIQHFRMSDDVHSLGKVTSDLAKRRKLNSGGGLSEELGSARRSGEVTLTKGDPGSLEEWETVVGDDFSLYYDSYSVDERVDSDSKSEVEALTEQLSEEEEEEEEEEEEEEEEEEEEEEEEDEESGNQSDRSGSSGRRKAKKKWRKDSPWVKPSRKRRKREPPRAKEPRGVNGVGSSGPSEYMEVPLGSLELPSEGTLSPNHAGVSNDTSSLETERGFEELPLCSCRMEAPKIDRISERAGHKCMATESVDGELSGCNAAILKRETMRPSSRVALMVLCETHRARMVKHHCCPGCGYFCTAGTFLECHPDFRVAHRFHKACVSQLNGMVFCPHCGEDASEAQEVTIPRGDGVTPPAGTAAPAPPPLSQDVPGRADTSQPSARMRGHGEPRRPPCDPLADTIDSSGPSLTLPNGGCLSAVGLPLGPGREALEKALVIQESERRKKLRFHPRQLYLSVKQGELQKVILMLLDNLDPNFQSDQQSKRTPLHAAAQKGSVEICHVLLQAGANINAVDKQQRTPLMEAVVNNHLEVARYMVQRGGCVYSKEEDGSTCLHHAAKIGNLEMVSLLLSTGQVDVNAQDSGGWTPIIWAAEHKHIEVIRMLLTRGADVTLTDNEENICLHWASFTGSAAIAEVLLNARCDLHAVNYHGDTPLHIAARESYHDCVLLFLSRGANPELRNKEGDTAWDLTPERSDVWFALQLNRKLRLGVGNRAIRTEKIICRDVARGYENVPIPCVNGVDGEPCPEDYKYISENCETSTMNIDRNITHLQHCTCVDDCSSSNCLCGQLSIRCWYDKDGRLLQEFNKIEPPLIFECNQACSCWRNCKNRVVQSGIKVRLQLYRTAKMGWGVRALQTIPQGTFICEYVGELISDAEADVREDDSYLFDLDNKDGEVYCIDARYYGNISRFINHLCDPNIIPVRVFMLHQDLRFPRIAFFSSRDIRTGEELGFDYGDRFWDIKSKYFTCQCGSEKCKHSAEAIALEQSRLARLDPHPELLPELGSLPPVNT

Compound	Potency	activity, negative = inhibition
CCCCC(=NCCc1c(C)[nH]c2ccccc12)C1=C(O)CC(c2ccccc2)CC1=O (configuration not stated)	inconclusive: 15.8 µM [inhibitor, partial curve]	
COC(=O)c1ccccc1NC(=S)NC(=O)c1ccccc1F	inconclusive: 17.8 µM [inhibitor, single point]	
CS(=O)(=O)N1CCc2cc(-c3csc(NCC4CCCO4)n3)ccc21 (configuration not stated)	active: 5.62 µM	
CN(Cc1ccco1)c1ncncc1-c1ccc2c(c1)OCO2		inactive: -2.62% [at 0.501 µM]
O=C(Oc1ccc(Br)cc1C(=S)N1CCCC1)c1ccccc1Cl		inactive: 7.47% [at 0.0925 µM]
Cc1cc(C)c(C(=O)NNC(=O)c2cccnc2)c(C)c1	inconclusive: 89.1 µM [inhibitor, single point]	
O=C(COC(=O)CCc1ccc(S(=O)(=O)N2CCOCC2)cc1)NCc1ccccc1Cl	inactive	
CC(=O)c1ccc(N2CCN(C(=O)c3cc4c(s3)CCCC4)CC2)cc1	inconclusive: 70.8 µM [inhibitor, partial curve, poor fit]	
CNC(=O)c1[nH]cnc1C(=O)N[C@@H](CC(C)C)C(=O)OC(C)(C)C		inconclusive: -60.5% [inhibitor]
CCC(C)C1=CC(=Nc2c(C)n(C)n(-c3ccccc3)c2=O)C=C(C(C)CC)C1=O (configuration not stated)	inconclusive: 0.631 µM [inhibitor, full curve, poor fit]	
CN(CC(=O)Nc1cccc(F)c1)C(=O)c1ccccc1-n1cnnn1	inactive	
CC1CC(C)CN(C(=O)CSCC(=O)Nc2nc(-c3cccs3)cs2)C1 (configuration not stated)	inconclusive: 25.1 µM [inhibitor, single point]	
Nc1ccc(C(=O)O)c(O)c1	inactive	
COc1cccc(NC(=O)CCc2nnc3ccc(N4CCN(c5cccc(OC)c5)CC4)nn23)c1	inactive	
CCc1cccc(NC(=O)CN(C)S(=O)(=O)c2cccc3cccnc23)c1	inactive	
CCN(Cc1ccccc1)S(=O)(=O)c1ccc(C(=O)N2CCN(c3nc4ccccc4s3)CC2)cc1	inactive	
COCCn1c(C)cc(C(=O)COc2cccnc2[N+](=O)[O-])c1C	inconclusive: 89.1 µM [inhibitor, single point]	
O/N=C(/c1ccccc1)c1cc2cc(Br)cc(Br)c2o1	inactive	
CCN1CCN(CCC(=O)Nc2ccc(Br)c(C)c2)CC1	inconclusive: 89.1 µM [inhibitor, single point]	
O=S(CCc1ccncc1)Cc1ccccc1 (configuration not stated)	inactive	
c1ccc2sc(N3CCN(Cc4ccc5c(c4)OCO5)CC3)nc2c1	inactive	
COc1ccccc1NC(=O)CSc1sc2c(O)cc(=O)[nH]c2c1C#N	active: 8.91 µM	
Cc1ccc(NC(=O)CN2C(=O)S/C(=C\c3ccc(-c4cccc(C(=O)O)c4C)o3)C2=O)cc1	active: 11.2 µM	
COC(=O)c1ccc(CC(=O)c2c(C)cc(O)cc2O)o1	active: 44.7 µM	

Compound	Potency	activity, negative = inhibition
Clc1ccc(-n2nnnc2SCc2c(-c3ccccc3)nc3sccn23)cc1	inconclusive: 25.1 µM [inhibitor, single point]	
Cc1ccc2cc(CN(Cc3ccco3)S(=O)(=O)c3c(C)ccc4nsnc34)c(=O)[nH]c2c1		inconclusive: -59.7% [inhibitor]
O=S(=O)(c1ccc(OCc2nc3ccccc3s2)c(Cl)c1)N1CCOCC1	active: 50.1 µM	
Cc1ccc(CNC(=O)CSc2nc3ccsc3c(=O)n2Cc2ccc(C(=O)O)cc2)cc1	inconclusive: 89.1 µM [inhibitor, single point]	
COc1ccc(S(=O)(=O)c2cnc(SCC(=O)Nc3cc(F)ccc3C)[nH]c2=O)cc1Cl	inactive	
CC1CCN(C2=C(NS(=O)(=O)c3ccccc3)C(=O)c3ccccc3C2=O)CC1	active: 3.98 µM	
COc1cc(/C=C/c2nc(C#N)c(N3CCC(C)CC3)o2)cc(OC)c1OC	inconclusive: 10 µM [inhibitor, partial curve]	
Cc1ccc(/C=C2\Sc3ccccc3C2=O)s1		inactive: 11.6% [at 0.501 µM]
Cc1cccc(Cc2c(C)nc3nc(SCC(=O)NCc4ccco4)nn3c2C)c1		inconclusive: -51.7% [inhibitor]
COc1cc(SC)ccc1C(=O)Nc1ccc2c(c1)OCO2	inconclusive: 35.5 µM [inhibitor, full curve, poor fit]	
Cc1ccc(Cn2c(=S)[nH]c3ccc(N4CCOCC4)cc3c2=O)o1	inconclusive: 3.98 µM [inhibitor, single point]	
O=C(O)c1ccc(NC2=C/C(=N/S(=O)(=O)c3ccccc3)c3ccccc3C2=O)cc1	active: 12.6 µM	
CCOC(=O)c1ccc(OC(=O)c2cn(-c3cccc(OC)c3)c(=O)c3ccccc23)cc1	inactive	
CCC(CC)N1CCN(S(=O)(=O)c2ccc(OC)cc2)CC1	active: 3.55 µM	
NC(=O)CN1N=C(c2cc(Cl)sc2Cl)CSC1=O	inconclusive: 28.2 µM [inhibitor, single point]	
CN(C)S(=O)(=O)c1ccc2nc(NC(=O)c3cccs3)sc2c1	inconclusive: 100 µM [inhibitor, single point]	
COc1cccc(OC(=O)CSc2nnc(-c3ccc4c(c3)OCO4)o2)c1	inactive	
Cc1cc(-c2nnc(SCC(=O)Nc3ccc(F)cc3F)n2N)n[nH]1	inconclusive: 39.8 µM [inhibitor, single point]	
CCn1cc(C(=O)O)c(=O)c2cnc(N3CCN(C(=O)Nc4cccc5ccccc45)CC3)nc21	inconclusive: 56.2 µM [inhibitor, single point]	
Cc1cc(C)cc(C(=O)NC(CC(N)=O)c2ccc(N3CCN(C)CC3)c([N+](=O)[O-])c2)c1 (configuration not stated)	inconclusive: 70.8 µM [inhibitor, single point]	
CC(C)(C)C(=O)Nc1nnc(-c2ccncc2)o1	active: 79.4 µM	
COc1ccc(C(=O)CC(=O)C(=O)Nc2cc(Cl)c(OC)cc2OC)cc1	inconclusive: 89.1 µM [inhibitor, partial curve, poor fit]	
Cc1ncc(CO)c(CN)c1O	inconclusive: 12.6 µM [inhibitor, partial curve]	
